# Measured values published in PubChem BioAssay AID488969 (Vanderbilt High Throughput Screening Facility, 2010).
# Over roughly 110,000 compounds, “z-score” has its median near -0.1; the highest 2% begin near 2. The list shows a part of the results.
# Target: Metabotropic glutamate receptor 8 (Rattus norvegicus) (UniProt P70579)
# Assay: mGluR8 Gi/Go-coupled signaling modulation – cell-based, rat, thallium flux, HTS, primary screen (AID 488969)
# Conditions: HEK293 rat mGluR8, GIRK (G protein-gated inwardly rectifying potassium channel) thallium flux, FluoZin2; at 10 µM; stronger effect = higher value; submaximal glutamate (EC20) added with thallium
# Chain of UniProt P70579 (P70579 whole entry, looked up): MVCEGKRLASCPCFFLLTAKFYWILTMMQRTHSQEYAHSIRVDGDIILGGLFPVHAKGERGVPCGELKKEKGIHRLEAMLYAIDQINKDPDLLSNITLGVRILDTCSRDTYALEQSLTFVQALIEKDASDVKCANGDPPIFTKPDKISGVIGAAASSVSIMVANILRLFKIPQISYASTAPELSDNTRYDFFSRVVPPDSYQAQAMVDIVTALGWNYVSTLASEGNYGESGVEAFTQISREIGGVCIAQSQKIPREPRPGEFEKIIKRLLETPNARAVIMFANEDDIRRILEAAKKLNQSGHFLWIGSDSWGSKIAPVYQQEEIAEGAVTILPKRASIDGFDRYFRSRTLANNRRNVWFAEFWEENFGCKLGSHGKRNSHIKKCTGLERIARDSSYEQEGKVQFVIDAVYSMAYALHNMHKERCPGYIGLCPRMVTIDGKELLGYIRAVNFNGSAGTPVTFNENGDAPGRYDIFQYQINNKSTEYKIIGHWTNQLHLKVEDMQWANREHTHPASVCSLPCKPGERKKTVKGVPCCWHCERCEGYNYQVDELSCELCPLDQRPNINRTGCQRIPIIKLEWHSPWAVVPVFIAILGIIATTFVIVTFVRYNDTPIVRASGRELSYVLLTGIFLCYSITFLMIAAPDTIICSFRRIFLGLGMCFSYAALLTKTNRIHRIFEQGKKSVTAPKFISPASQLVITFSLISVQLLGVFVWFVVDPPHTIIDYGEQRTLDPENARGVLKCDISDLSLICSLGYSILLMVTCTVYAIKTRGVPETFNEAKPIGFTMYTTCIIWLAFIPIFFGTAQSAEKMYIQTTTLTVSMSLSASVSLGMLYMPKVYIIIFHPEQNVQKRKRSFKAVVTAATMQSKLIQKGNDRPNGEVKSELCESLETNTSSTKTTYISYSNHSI
row,Compound,z-score
1,Cc1ccnc(NS(=O)(=O)c2ccc(NC(=O)Cc3ccccc3)cc2)n1,-0.209
2,COc1ccc(-c2nc3nc(C)c(Cc4ccccc4)c(=O)n3[nH]2)cc1,0.0518
3,CCOC(=O)c1c(-c2ccc(-c3ccccc3)cc2)csc1NC(=O)CCN1CCOCC1,-0.139
4,O=C(CCNC(=O)c1ccccc1)OCN1C(=O)c2ccccc2C1=O,-0.16
5,O=C(CCn1c(=S)[nH]c2cc3c(cc2c1=O)OCO3)N1CCN(C2CCCCC2)CC1,-0.372
6,Cc1cccc(Nc2nnc(SCC(=O)Nc3cccc(S(=O)(=O)N4CCCCC4)c3)s2)c1,-0.33
7,Cc1cc2c(cc1C)NC(=O)CC(C(F)(F)C(F)(F)C(F)(F)F)=N2,-0.139
8,Cc1cc(C)c(NC(=O)c2ccc(CNS(=O)(=O)c3cc(C(F)(F)F)ccc3Cl)cc2)c(C)c1,-0.0884
9,CN(C)S(=O)(=O)c1ccc2c(c1)C(CC(=O)O)OC2=O (configuration not stated),0.184
10,Cc1ccccc1NS(=O)(=O)c1cc(C(=O)NCc2ccco2)ccc1C,-0.101
11,C=C(C)Cn1c(SCC(=O)N/N=C/c2ccccc2)nc2ccccc2c1=O,-2.14
12,CCOC(=O)C1CCCN(C(=O)Cc2ccc(C)cc2)C1 (configuration not stated),-0.33
13,O=C(CSCC(=O)c1ccccc1)Nc1ccccc1Cl,-0.358
14,O=C(Cn1c(C(=O)N2CCN(C3CCCC3)CC2)cc2sccc21)c1ccccc1,0.0173
15,O=C(CCc1nc2ccccc2c(=O)[nH]1)OCc1ccc(-c2ccccc2)cc1,-0.0224
16,CCN1CCN(CCn2c(=S)[nH]c3cc4c(cc3c2=O)OCO4)CC1,0.106
17,CCc1noc(C)c1C(=O)Nc1nc(-c2ccc(Cl)cc2Cl)c(C)s1,-0.529
18,Cc1nc(=S)c2ccccc2[nH]1,1.49
19,CCOc1ccccc1C(=O)N(Cc1cccs1)C1CCS(=O)(=O)C1 (configuration not stated),-0.586
20,O=C1C(=O)N(CCCN2CCOCC2)C(c2cccs2)/C1=C(/O)c1ccc2c(c1)OCO2 (configuration not stated),0.367
21,Cc1cc(NC(=O)CSc2ccccc2)no1,-0.0515
22,CCCCOc1ccc(Cl)cc1CSc1n[nH]c(C)n1,-0.293
23,CC(C)CCNC(=O)C(c1cccnc1)N(CCc1ccccc1)C(=O)Cn1nnc2ccccc21 (configuration not stated),0.555

row,Compound,z-score
1,O=C(COC(=O)c1cccnc1)Nc1ccc(F)cc1,0.1
2,CCOc1cccc(C(=O)Nc2cc(-c3nn4c(C)nnc4s3)ccc2C)c1,0.356
3,CCOC(=O)COc1ccc(S(=O)(=O)N2CCN(c3ccc(F)cc3)CC2)cc1,-0.127
4,Cc1ccc(-n2c(SCC(N)=O)nc3c(c2=O)C2(CCCC2)Cc2ccccc2-3)cc1,-0.348
5,CCn1c(SCC(=O)NCc2ccc3c(c2)OCO3)nnc1-c1cccs1,-0.0658
6,O=C(CN1C(=O)NC2(CCCCC2)C1=O)Nc1ccc(S(=O)(=O)N2CCOCC2)cc1,-0.0303
7,CC(=O)c1ccc(N2CCN(C(=O)C3CCC3)CC2)cc1,0.464
8,COc1ccccc1NC(=O)C1=C(C)Nc2nc(-c3cccs3)nn2C1c1cccnc1 (configuration not stated),-0.482
9,C=C(C)c1cccc(C(C)(C)NC(=O)NC(c2ccccc2)c2ccc(OC)cc2)c1 (configuration not stated),-0.23
10,CCCc1[nH]nc2c1C(c1ccc(OC)c(Cn3nnc4ccccc43)c1)C(C#N)=C(N)O2 (configuration not stated),-0.88
11,CCOc1ccc(C(=O)NC(=S)Nc2cccnc2)cc1,-0.435
12,C#CCn1c(=NC(=O)CN2C(=O)CCC2=O)sc2cc(S(N)(=O)=O)ccc21,-0.113
13,Cc1ccc(S(=O)(=O)N(C)c2cc(S(=O)(=O)N3CCC(C)CC3)c(C)cc2C)cc1,-0.338
14,CC1(C)Cc2c(c(N3CCOCC3)nc3sc4c(NCc5ccccc5)nnnc4c23)CS1,-0.325
15,COc1cccc(Cn2c(NCc3ccccn3)nc3c2c(=O)n(C)c(=O)n3C)c1,-0.908
16,O=C(Oc1ccccc1)c1cc2ccccc2o1,2.68
17,COc1ccc(N2CCN(Cc3nc4c(c(=O)n(C)c(=O)n4C)n3C(C)C(C)=O)CC2)cc1 (configuration not stated),0.133
18,COc1ccc2oc(-c3ccc(C)c(NC(=O)c4ccc(N5CCOCC5)c([N+](=O)[O-])c4)c3)nc2c1,-0.0248
19,CCn1c(CNc2nc3ccccc3n2C(C)C)nc2ccccc21,-0.319
20,CCOC(=O)c1cc(-c2ccc(OC(F)F)cc2)nc2c1c(=O)[nH]c(=O)n2C,-0.204
21,C/C(=N/NC(=O)Cc1cccn1C)c1ccccc1,-0.136
22,CCOC(=O)c1ccc(Nc2ncnc3ccc(C)cc23)cc1,-0.372
23,Cc1cc(-c2ccccc2)c(C#N)c(N)n1,0.646

row,Compound,z-score
1,COCc1nnc(NC(=O)c2cc(C(=O)OC)cc([N+](=O)[O-])c2)s1,-0.115
2,COc1ccc(Nc2nc(N)nc(CN3CCc4ccccc4C3)n2)cc1,-0.308
3,Cc1cc(C(=O)NNC(=S)NCC(C)C)no1,-0.0668
4,CCCCCOC(=O)C1[C@H]2C(=O)N(CCCOC)C[C@]23C=C[C@H]1O3 (some centres not stated),0.0933
5,O=C(CSc1ccc2nnc(CCNS(=O)(=O)c3ccccc3)n2n1)Nc1nc2ccccc2s1,-0.158
6,COc1ccc(CNS(=O)(=O)c2ccc(OC)cc2)cc1,0.775
7,Cc1c(C(=O)Nc2ccc(Cl)cc2)c2ccccn2c1C(=O)c1ccc(F)cc1,0.165
8,Cc1ccc(NC(=O)COC(=O)C2(c3ccc(Cl)cc3)CCCC2)cc1,-0.108
9,COC(=O)CN(c1ccc(OC)cc1)S(=O)(=O)c1c(C)noc1C,-0.0349
10,CCOC(=O)c1sc2nc(C3CC3)cc(-c3ccc(OC)cc3)c2c1N,0.139
11,COC(=O)CCN(C(=O)C12CC3CC(CC(C3)C1)C2)c1ccccn1,0.0508
12,CC1=CCC2C(=O)N(c3nc(C)cc(C)n3)C(=O)C2C1 (configuration not stated),-0.376
13,COc1ccc(OC)c(N2C(=O)CC(Cc3ccc(C)cc3)C2=O)c1 (configuration not stated),-0.505
14,O=S(=O)(c1ccccc1)N(CC(O)CN1CCCCC1)c1ccccc1 (configuration not stated),0.146
15,N#CCCn1cc(/C=N/O)c(-c2ccccc2)n1,0.0606
16,CC(C)C(NC(=O)COc1ccccc1)C(=O)O (configuration not stated),0.0908
17,Oc1ccc(-c2nc(=S)[nH][nH]2)cc1,0.905
18,Cc1ccc(-n2[nH]c(C)c(C=Nc3ccc(S(=O)(=O)Nc4nccs4)cc3)c2=O)cc1,-0.363
19,Cc1n[nH]c(=S)n(/N=C/c2ccccn2)c1=O,0.394
20,CCOC(=O)C1=C(N)OC2=C(C(=O)CC(C)(C)C2)C1c1ccoc1 (configuration not stated),-0.174
21,O=C(Nc1ccc(N2CCN(C(=O)c3ccccc3)CC2)cc1)c1ccc(Br)o1,-0.352
